Source: publication PMC6643034
No constants are given. Whether binding was seen depends on the method and setting. Some entries that bind do so weakly or less than the wild type. For some assays here: Where a sequence is shown, tags or fusion partners need not be part of it.

Chains of the proteins cited; added tags and fusions are not shown. Residues count along the entry.
UniProt P13500, residues 24-99: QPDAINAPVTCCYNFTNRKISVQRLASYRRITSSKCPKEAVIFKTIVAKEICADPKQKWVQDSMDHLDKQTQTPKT
UniProt P10147, residues 24-92: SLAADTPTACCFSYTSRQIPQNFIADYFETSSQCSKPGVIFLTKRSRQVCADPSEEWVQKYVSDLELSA
UniProt P13236, residues 24-92: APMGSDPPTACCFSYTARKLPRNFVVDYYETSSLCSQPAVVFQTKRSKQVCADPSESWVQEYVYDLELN
UniProt P13501, residues 24-91: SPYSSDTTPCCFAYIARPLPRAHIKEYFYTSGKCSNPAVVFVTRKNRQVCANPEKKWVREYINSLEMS
UniProt P80098, residues 24-99: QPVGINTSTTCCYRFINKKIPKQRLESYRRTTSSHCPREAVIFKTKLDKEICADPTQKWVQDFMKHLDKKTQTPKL
UniProt P80075, residues 24-99: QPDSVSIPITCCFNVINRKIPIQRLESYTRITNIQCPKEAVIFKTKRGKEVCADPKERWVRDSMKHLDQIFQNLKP
UniProt P51671, residues 24-97: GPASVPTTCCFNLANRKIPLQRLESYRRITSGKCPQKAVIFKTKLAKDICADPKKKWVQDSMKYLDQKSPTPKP
UniProt Q99616, residues 17-98: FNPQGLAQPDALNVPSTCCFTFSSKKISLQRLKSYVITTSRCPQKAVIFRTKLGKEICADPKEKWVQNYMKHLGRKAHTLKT
UniProt Q92583, residues 24-94: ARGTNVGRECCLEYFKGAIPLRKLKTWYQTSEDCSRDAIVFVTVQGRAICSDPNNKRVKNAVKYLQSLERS
UniProt Q99731, residues 22-98: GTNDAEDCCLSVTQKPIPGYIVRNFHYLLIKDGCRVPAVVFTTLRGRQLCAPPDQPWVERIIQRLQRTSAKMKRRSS
UniProt P78556, residues 27-96: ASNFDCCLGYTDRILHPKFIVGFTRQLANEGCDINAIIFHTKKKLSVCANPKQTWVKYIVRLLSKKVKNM
UniProt O00585, residues 24-134: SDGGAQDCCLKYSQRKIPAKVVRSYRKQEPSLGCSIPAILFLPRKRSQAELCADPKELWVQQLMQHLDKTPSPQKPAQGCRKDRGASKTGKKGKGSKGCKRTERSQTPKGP
UniProt P09341, residues 35-107: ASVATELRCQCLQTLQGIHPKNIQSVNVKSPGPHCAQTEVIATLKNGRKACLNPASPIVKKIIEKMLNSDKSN
UniProt P19875, residues 35-107: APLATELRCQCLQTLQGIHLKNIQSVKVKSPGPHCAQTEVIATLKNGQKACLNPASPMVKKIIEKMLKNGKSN
UniProt P19876, residues 35-107: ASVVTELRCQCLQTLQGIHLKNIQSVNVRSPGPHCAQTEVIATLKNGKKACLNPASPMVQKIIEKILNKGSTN
UniProt P42830, residues 37-114: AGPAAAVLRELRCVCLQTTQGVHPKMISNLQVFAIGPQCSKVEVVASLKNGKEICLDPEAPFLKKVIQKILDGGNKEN
UniProt P02778, residues 22-98: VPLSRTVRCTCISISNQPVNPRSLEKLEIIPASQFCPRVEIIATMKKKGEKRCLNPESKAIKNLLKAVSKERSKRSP

Assays:
Experiment in all cases: BLI; cross-binding screen on OctetRed; evasin held on a nickel-coated biosensor through its C-terminal His tag; each human chemokine at 300 nM; both purified
[1] = molecular target: P942_IXORI (Ixodes ricinus)
[2] = molecular target: T1, P1142_AMBCA (Amblyomma cajennense)
T1 sequence: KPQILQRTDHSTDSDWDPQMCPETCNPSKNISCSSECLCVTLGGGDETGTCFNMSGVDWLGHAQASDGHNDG

[3] = molecular target: P1124_IXORI (Ixodes ricinus)
[4] = molecular target: T2, P1126_AMBCA (Amblyomma cajennense)
T2 sequence: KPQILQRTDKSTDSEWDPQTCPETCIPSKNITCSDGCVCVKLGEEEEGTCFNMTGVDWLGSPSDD

[5] = molecular target: P1100_IXORI (Ixodes ricinus)
[6] = molecular target: T3, P1172_IXORI (Ixodes ricinus) (UniProt V5I2G9)
T3 sequence: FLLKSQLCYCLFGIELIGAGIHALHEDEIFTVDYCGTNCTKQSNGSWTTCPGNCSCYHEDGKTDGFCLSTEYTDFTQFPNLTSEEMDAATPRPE

[7] = molecular target: P1086_IXORI (Ixodes ricinus)
[8] = molecular target: P1090_IXORI (Ixodes ricinus)
[9] = molecular target: T4, EVA3_RHISA (Rhipicephalus sanguineus) (UniProt P0C8E8)
T4 sequence: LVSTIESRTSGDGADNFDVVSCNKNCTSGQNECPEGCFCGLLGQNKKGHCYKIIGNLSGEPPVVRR

[10] = molecular target: P1080_IXORI (Ixodes ricinus)
[11] = molecular target: P1078_IXORI (Ixodes ricinus)

| Substance | binding [1] | binding [2] | binding [3] | binding [4] | binding [5] | binding [6] | binding [7] | binding [8] | binding [9] | binding [10] | binding [11] |
| --- | --- | --- | --- | --- | --- | --- | --- | --- | --- | --- | --- |
| CCL2 (from UniProt P13500 24-99) (ligand) | no binding (tested: 300 nM) | no binding (tested: 300 nM) | no binding (tested: 300 nM) | no binding (tested: 300 nM) | no binding (tested: 300 nM) | no binding (tested: 300 nM) | no binding (tested: 300 nM) | no binding (tested: 300 nM) | no binding (tested: 300 nM) | no binding (tested: 300 nM) | no binding (tested: 300 nM) |
| CCL3 (from UniProt P10147 24-92) (ligand) | no binding (tested: 300 nM) | no binding (tested: 300 nM) | no binding (tested: 300 nM) | no binding (tested: 300 nM) | no binding (tested: 300 nM) | no binding (tested: 300 nM) | no binding (tested: 300 nM) | no binding (tested: 300 nM) | no binding (tested: 300 nM) | no binding (tested: 300 nM) | no binding (tested: 300 nM) |
| CCL4 (from UniProt P13236 24-92) (ligand) | no binding (tested: 300 nM) | no binding (tested: 300 nM) | no binding (tested: 300 nM) | no binding (tested: 300 nM) | no binding (tested: 300 nM) | no binding (tested: 300 nM) | no binding (tested: 300 nM) | no binding (tested: 300 nM) | no binding (tested: 300 nM) | no binding (tested: 300 nM) | no binding (tested: 300 nM) |
| CCL5 (from UniProt P13501 24-91) (ligand) | no binding (tested: 300 nM) | no binding (tested: 300 nM) | no binding (tested: 300 nM) | no binding (tested: 300 nM) | no binding (tested: 300 nM) | no binding (tested: 300 nM) | no binding (tested: 300 nM) | no binding (tested: 300 nM) | no binding (tested: 300 nM) | no binding (tested: 300 nM) | no binding (tested: 300 nM) |
| CCL7 (from UniProt P80098 24-99) (ligand) | no binding (tested: 300 nM) | no binding (tested: 300 nM) | no binding (tested: 300 nM) | no binding (tested: 300 nM) | no binding (tested: 300 nM) | no binding (tested: 300 nM) | no binding (tested: 300 nM) | no binding (tested: 300 nM) | no binding (tested: 300 nM) | no binding (tested: 300 nM) | no binding (tested: 300 nM) |
| CCL8 (from UniProt P80075 24-99) (ligand) | no binding (tested: 300 nM) | no binding (tested: 300 nM) | no binding (tested: 300 nM) | no binding (tested: 300 nM) | no binding (tested: 300 nM) | no binding (tested: 300 nM) | no binding (tested: 300 nM) | no binding (tested: 300 nM) | no binding (tested: 300 nM) | no binding (tested: 300 nM) | no binding (tested: 300 nM) |
| CCL11 (from UniProt P51671 24-97) (ligand) | no binding (tested: 300 nM) | no binding (tested: 300 nM) | no binding (tested: 300 nM) | no binding (tested: 300 nM) | no binding (tested: 300 nM) | no binding (tested: 300 nM) | no binding (tested: 300 nM) | no binding (tested: 300 nM) | no binding (tested: 300 nM) | no binding (tested: 300 nM) | no binding (tested: 300 nM) |
| CCL13 (from UniProt Q99616 17-98) (ligand) | no binding (tested: 300 nM) | no binding (tested: 300 nM) | no binding (tested: 300 nM) | no binding (tested: 300 nM) | no binding (tested: 300 nM) | no binding (tested: 300 nM) | no binding (tested: 300 nM) | no binding (tested: 300 nM) | no binding (tested: 300 nM) | no binding (tested: 300 nM) | no binding (tested: 300 nM) |
| CCL17 (from UniProt Q92583 24-94) (ligand) | no binding (tested: 300 nM) | no binding (tested: 300 nM) | no binding (tested: 300 nM) | no binding (tested: 300 nM) | no binding (tested: 300 nM) | no binding (tested: 300 nM) | no binding (tested: 300 nM) | no binding (tested: 300 nM) | no binding (tested: 300 nM) | no binding (tested: 300 nM) | no binding (tested: 300 nM) |
| CCL19 (from UniProt Q99731 22-98) (ligand) | no binding (tested: 300 nM) | no binding (tested: 300 nM) | no binding (tested: 300 nM) | no binding (tested: 300 nM) | no binding (tested: 300 nM) | no binding (tested: 300 nM) | no binding (tested: 300 nM) | no binding (tested: 300 nM) | no binding (tested: 300 nM) | no binding (tested: 300 nM) | no binding (tested: 300 nM) |
| CCL20 (from UniProt P78556 27-96) (ligand) | no binding (tested: 300 nM) | no binding (tested: 300 nM) | no binding (tested: 300 nM) | no binding (tested: 300 nM) | no binding (tested: 300 nM) | no binding (tested: 300 nM) | no binding (tested: 300 nM) | no binding (tested: 300 nM) | no binding (tested: 300 nM) | no binding (tested: 300 nM) | no binding (tested: 300 nM) |
| CCL21 (from UniProt O00585 24-134) (ligand) | no binding (tested: 300 nM) | no binding (tested: 300 nM) | no binding (tested: 300 nM) | no binding (tested: 300 nM) | no binding (tested: 300 nM) | no binding (tested: 300 nM) | no binding (tested: 300 nM) | no binding (tested: 300 nM) | no binding (tested: 300 nM) | no binding (tested: 300 nM) | no binding (tested: 300 nM) |
| CXCL1 (from UniProt P09341 35-107) (ligand) |  |  |  |  |  | binds |  |  |  |  |  |
| CXCL2 (from UniProt P19875 35-107) (ligand) |  |  |  |  |  | binds |  |  |  |  |  |
| CXCL3 (from UniProt P19876 35-107) (ligand) |  |  |  |  |  | no binding (tested: 300 nM) |  |  |  |  |  |
| CXCL5 (from UniProt P42830 37-114) (ligand) | binds | binds | binds | binds | binds | binds | binds | binds | binds | binds | binds |
| CXCL10 (from UniProt P02778 22-98) (ligand) |  |  |  |  |  | no binding (tested: 300 nM) |  | binds | no binding (tested: 300 nM) |  |  |
